Data on 54 compounds can be found in article PMC4336329 (PLoS ONE, 2015).

Out of some 310,000 compounds screened, about 14,000 (4.5%) showed an effect of 50% or more. Effects have a minus sign here. Some of the results follow.
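Note: peak tail current of the secondary pulse compared with the same well before compound.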

The target in the experiment is human ether-à-go-go-related gene (hERG) potassium channel (human, UniProt Q12809). In words: primary screen, population patch clamp on CHO cells stably expressing hERG.
human ether-à-go-go-related gene (hERG) potassium channel, sequence (Q12809 whole entry, looked up): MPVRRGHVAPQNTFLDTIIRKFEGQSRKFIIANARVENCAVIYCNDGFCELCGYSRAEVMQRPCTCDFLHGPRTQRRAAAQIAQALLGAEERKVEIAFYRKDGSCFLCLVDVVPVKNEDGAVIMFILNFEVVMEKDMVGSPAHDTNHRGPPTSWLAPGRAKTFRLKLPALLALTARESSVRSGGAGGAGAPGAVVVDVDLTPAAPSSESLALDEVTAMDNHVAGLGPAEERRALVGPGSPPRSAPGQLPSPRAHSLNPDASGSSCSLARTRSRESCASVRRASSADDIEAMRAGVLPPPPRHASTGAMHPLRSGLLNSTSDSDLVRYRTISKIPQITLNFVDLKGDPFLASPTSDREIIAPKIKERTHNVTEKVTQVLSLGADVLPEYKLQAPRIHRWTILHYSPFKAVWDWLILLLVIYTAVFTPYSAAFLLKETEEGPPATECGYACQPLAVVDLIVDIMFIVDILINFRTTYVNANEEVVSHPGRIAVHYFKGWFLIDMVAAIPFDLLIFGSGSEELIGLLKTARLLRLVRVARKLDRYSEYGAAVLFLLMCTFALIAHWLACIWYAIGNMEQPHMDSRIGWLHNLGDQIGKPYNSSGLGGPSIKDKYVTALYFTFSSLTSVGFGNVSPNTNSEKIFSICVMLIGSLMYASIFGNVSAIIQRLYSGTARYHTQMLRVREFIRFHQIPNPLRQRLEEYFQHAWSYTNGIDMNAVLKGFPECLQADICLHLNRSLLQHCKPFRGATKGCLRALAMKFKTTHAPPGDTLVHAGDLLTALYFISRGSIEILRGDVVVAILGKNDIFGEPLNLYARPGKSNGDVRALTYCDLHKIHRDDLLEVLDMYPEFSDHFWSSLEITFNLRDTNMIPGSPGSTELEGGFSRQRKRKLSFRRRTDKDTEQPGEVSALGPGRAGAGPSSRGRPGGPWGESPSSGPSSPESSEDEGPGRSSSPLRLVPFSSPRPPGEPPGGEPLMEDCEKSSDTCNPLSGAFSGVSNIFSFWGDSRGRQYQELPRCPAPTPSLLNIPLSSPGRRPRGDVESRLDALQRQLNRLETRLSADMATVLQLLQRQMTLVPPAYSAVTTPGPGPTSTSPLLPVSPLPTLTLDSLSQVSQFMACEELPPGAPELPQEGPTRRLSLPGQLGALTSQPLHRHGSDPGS
With `C=CCn1c(C)cc(C(=O)COc2ccc(S(=O)(=O)N3CCCC3)cc2[N+](=O)[O-])c1C`, the “hERG current change (%, negative = inhibition) at 10uM” value was found to be 5.51%.

For `COc1ccccc1N(C)S(=O)(=O)c1ccc(C(=O)NCCc2ccc(F)cc2)cc1`, the “hERG current change (%, negative = inhibition) at 10uM” value is -1.34%.

Turning to `COC(=O)c1ccc(C(NC(=O)OCc2ccccc2)/C(F)=C/[C@@H](C)C(=O)NCc2ccc(OC)c(OC)c2)cc1` (stereo partly drawn), the “hERG current change (%, negative = inhibition) at 10uM” value came to 0.852%.

For `CCN(CC)S(=O)(=O)c1ccc2oc(Nc3ccccc3)nc2c1`, the “hERG current change (%, negative = inhibition) at 10uM” value is 17.9%.

With `CCOc1ccc(NC(=O)CN(C)C(=O)c2cccnc2Sc2ccc(Cl)cc2)cc1OCC`, the “hERG current change (%, negative = inhibition) at 10uM” value is -52.4%.

With `Cc1noc(C)c1COC(=O)CN(C)S(=O)(=O)c1ccc(Cl)cc1`, the “hERG current change (%, negative = inhibition) at 10uM” value is listed as -14.4%.

Turning to `CCOc1ccc(C(CCc2ccccc2)NC(=O)c2ccc(OC)c(OC)c2)cc1OCC` (stereo not drawn), the “hERG current change (%, negative = inhibition) at 10uM” value is recorded as -15.9%.

In the case of `Cc1ccc(S(=O)(=O)N(C)C)cc1N`, the “hERG current change (%, negative = inhibition) at 10uM” value was determined as 5.55%.

Consider `CCOC(=O)[C@H]1[C@H]2COc3ccc(C)cc3[C@@H]2N2C(=O)c3cc(F)c(F)cc3NC(=O)[C@@]12C`, for which the “hERG current change (%, negative = inhibition) at 10uM” value amounted to 9.28%.

As to `COC(=O)CSc1nnc(COc2ccc3ccccc3c2)o1`, the “hERG current change (%, negative = inhibition) at 10uM” value was 19%.

Regarding `CN(C)c1ccc(C2CC(=O)NC3=C2C(=O)CC(C)(C)C3)cc1` (stereo not drawn), the “hERG current change (%, negative = inhibition) at 10uM” value was found to be 1.9%.

As for `Cc1oc(-c2ccc3c(c2)OCCO3)cc1C(=O)O`, the “hERG current change (%, negative = inhibition) at 10uM” value is given as -3.8%.

Take `S=C(NC1CCCCC1)N1CCN(c2ccccn2)CC1`: the “hERG current change (%, negative = inhibition) at 10uM” value was -4.09%.

Take `COCCNc1nc(C)cc(-c2cc(C(=O)NCc3ccccc3)on2)n1`: the “hERG current change (%, negative = inhibition) at 10uM” value stood at 1.21%.

For `COc1ccccc1CCN1CCCC(CN(C)C(=O)CCC(=O)N(C)C)C1` (stereo not drawn), the “hERG current change (%, negative = inhibition) at 10uM” value is 9.14%.

Consider `O=C1NC2(CCc3ccccc3C2)C(=O)N1CCOc1cccc(Cl)c1` (stereo not drawn), for which the “hERG current change (%, negative = inhibition) at 10uM” value is recorded as -51.1%.

For `O=C(Cc1cccc2ccccc12)NCCOc1ccccc1F`, the “hERG current change (%, negative = inhibition) at 10uM” value turned out to be 11.3%.

With `CCOc1ccc(NC(=O)c2ccc(NC(=O)COC(=O)c3ccc(NC(=O)CC#N)cc3)cc2)cc1`, the “hERG current change (%, negative = inhibition) at 10uM” value is 4.72%.

As to `Cn1c(=NC(=O)c2ccc(S(=O)(=O)N3CCCc4ccccc43)cc2)sc2cc(S(C)(=O)=O)ccc21`, the “hERG current change (%, negative = inhibition) at 10uM” value amounted to 15.8%.

Consider `O=Cc1[nH]c2ccccc2c1N(C(=O)CCl)c1ccc([N+](=O)[O-])cc1`, for which the “hERG current change (%, negative = inhibition) at 10uM” value is -41.9%.

Take `O=S(=O)(Nc1ccc(O)c(Sc2nc3ccccc3s2)c1)c1cccc2ccccc12`: the “hERG current change (%, negative = inhibition) at 10uM” value was found to be 6.48%.

`N#Cc1c(Nc2ccc(F)cc2)sc(C(=O)c2ccc(F)cc2)c1N`: the “hERG current change (%, negative = inhibition) at 10uM” value is recorded as -7.68%.

As for `Cc1ccc(-c2nnn(CC(=O)N(CCN3CCOCC3)C(C(=O)NC(C)(C)C)c3ccc(C)o3)n2)cc1` (stereo not drawn), the “hERG current change (%, negative = inhibition) at 10uM” value was -20.6%.

As to `O=C(NCc1cccnc1)c1ccc(Cl)c(S(=O)(=O)N2CCCCCC2)c1`, the “hERG current change (%, negative = inhibition) at 10uM” value is recorded as -36.2%.

In the case of `COc1ccccc1N1CCN(Cc2nc(N)nc(Nc3ccc(C)cc3)n2)CC1`, the “hERG current change (%, negative = inhibition) at 10uM” value was -50.3%.

Take `CCCCN(CC)C(=O)Cn1cnc2sc(C)c(S(=O)(=O)N3CCC(C)CC3)c2c1=O`: the “hERG current change (%, negative = inhibition) at 10uM” value is -45.9%.

Turning to `COc1ccc(S(=O)(=O)N2CCOCC2)cc1NC(=O)CCc1cc(OC)c(OC)c(OC)c1`, the “hERG current change (%, negative = inhibition) at 10uM” value is on record as -2.96%.

Take `Cc1nc2ccccc2nc1CSc1nncs1`: the “hERG current change (%, negative = inhibition) at 10uM” value is given as 5.39%.

Take `COc1ccc2nc(NC(=O)Nc3cccc4ccccc34)sc2c1`: the “hERG current change (%, negative = inhibition) at 10uM” value is given as 5.51%.

`Cc1ccccc1CN1CCNCC1.Cl`: the “hERG current change (%, negative = inhibition) at 10uM” value is 14%.

In the case of `Cc1cc(OC(=O)c2ccccc2C)c([N+](=O)[O-])c(=O)[nH]1`, the “hERG current change (%, negative = inhibition) at 10uM” value is listed as 9.67%.

For the compound `CN(CC(=O)Nc1cccc(F)c1)C(=O)c1cc([N+](=O)[O-])ccc1N1CCOCC1`, the “hERG current change (%, negative = inhibition) at 10uM” value is given as -23.1%.

Turning to `COCCNC(=O)CSc1nc2cc(OC)c(OC)cc2c(=O)n1Cc1ccc(OC)cc1`, the “hERG current change (%, negative = inhibition) at 10uM” value is given as -6.36%.

`Cc1ccc(SCC(=O)Nc2ccc(F)cc2[N+](=O)[O-])cc1C`: the “hERG current change (%, negative = inhibition) at 10uM” value was 11.7%.

Consider `Cc1cccc(OCC(=O)N2CCCc3ccccc32)c1`, for which the “hERG current change (%, negative = inhibition) at 10uM” value is 8.85%.

As for `Cc1ccccc1CN1C[C@@H]2C[C@@H](c3cn[nH]c3-c3ccccc3)N3CCC[C@@]23C1=O`, the “hERG current change (%, negative = inhibition) at 10uM” value is -5.95%.

Turning to `CCNC(=S)N(Cc1ccco1)Cc1cc2cc(OCC)ccc2[nH]c1=O`, the “hERG current change (%, negative = inhibition) at 10uM” value amounted to 0.36%.

As for `c1ccc2c(c1)CCCN2c1nc(N2CCOCC2)nc(N2CCOCC2)n1`, the “hERG current change (%, negative = inhibition) at 10uM” value is reported as -6.93%.

In the case of `Cc1cc(OCc2cccc(S(=O)(=O)N3CCOCC3)c2)ccc1Cl`, the “hERG current change (%, negative = inhibition) at 10uM” value is on record as -9.12%.

For `CC(Sc1ncc(C(F)(F)F)cc1Cl)C(=O)NC(N)=O` (stereo not drawn), the “hERG current change (%, negative = inhibition) at 10uM” value came to 0.58%.

For `CCc1cccc(CC)c1NC(=O)C1SC(=Nc2ccccc2C)C(c2nc3ccccc3s2)=C1N` (stereo not drawn), the “hERG current change (%, negative = inhibition) at 10uM” value is 29.1%.

In the case of `O=S(=O)(c1cccs1)N1CCN(c2ccccc2)CC1`, the “hERG current change (%, negative = inhibition) at 10uM” value stood at 15.5%.

Turning to `COc1ccc(Br)cc1C(=O)N/N=C/c1cccnc1`, the “hERG current change (%, negative = inhibition) at 10uM” value is recorded as -8.72%.

As to `CCCCOc1ccc(CSC(=N)N)cc1[N+](=O)[O-].Cl`, the “hERG current change (%, negative = inhibition) at 10uM” value is -64.1%.

As for `COc1ccc(CNC(=O)CC2(CC(=O)O)CCCCC2)cc1`, the “hERG current change (%, negative = inhibition) at 10uM” value worked out at 15.8%.

As to `O=C(c1cnn2cccnc12)N1CCN(c2ccccc2)CC1`, the “hERG current change (%, negative = inhibition) at 10uM” value is listed as 20%.

As to `CCOC(=O)C1(Cc2cccc(OC)c2)CCN(Cc2ccccc2)CC1`, the “hERG current change (%, negative = inhibition) at 10uM” value was -40.3%.

Turning to `COc1ccc(-c2[nH]ncc2CN(C)Cc2nonc2C)c(OC)c1`, the “hERG current change (%, negative = inhibition) at 10uM” value is reported as 16.8%.

In the case of `CCOC(=O)C1=C(C)Nc2nc(SCC)[nH]c(=O)c2C1c1ccncc1` (stereo not drawn), the “hERG current change (%, negative = inhibition) at 10uM” value is given as -7.65%.

Consider `CC(C)NC(=O)NC(=O)COC(=O)CCOc1ccccc1`, for which the “hERG current change (%, negative = inhibition) at 10uM” value is 2.07%.

For `COCCNC(=O)COc1cc(=O)n(C)c2ccccc12`, the “hERG current change (%, negative = inhibition) at 10uM” value was -17%.

In the case of `CCOP(=O)(c1ccccc1)C(O)c1ccc([N+](=O)[O-])cc1` (stereo not drawn), the “hERG current change (%, negative = inhibition) at 10uM” value is reported as 15.8%.

On to `Cc1cccc(-n2nc(CC#N)c(C#N)c2N)c1`, for which the “hERG current change (%, negative = inhibition) at 10uM” value was 27.5%.

On to `CCCOc1ccc(/C=N/NC(=O)CSCc2ccc([N+](=O)[O-])cc2)cc1OCC`, for which the “hERG current change (%, negative = inhibition) at 10uM” value is -32.4%.
